Screen size: about 310,000 compounds; about 2,200 (0.71%) showed an effect of 50% or more. Effects have a minus sign here. The list shows a part of the results.
The compounds below were run against human ether-à-go-go-related gene (hERG) potassium channel (human, UniProt Q12809) (assay: primary screen, population patch clamp on CHO cells stably expressing hERG).
human ether-à-go-go-related gene (hERG) potassium channel, sequence (Q12809 whole entry, looked up): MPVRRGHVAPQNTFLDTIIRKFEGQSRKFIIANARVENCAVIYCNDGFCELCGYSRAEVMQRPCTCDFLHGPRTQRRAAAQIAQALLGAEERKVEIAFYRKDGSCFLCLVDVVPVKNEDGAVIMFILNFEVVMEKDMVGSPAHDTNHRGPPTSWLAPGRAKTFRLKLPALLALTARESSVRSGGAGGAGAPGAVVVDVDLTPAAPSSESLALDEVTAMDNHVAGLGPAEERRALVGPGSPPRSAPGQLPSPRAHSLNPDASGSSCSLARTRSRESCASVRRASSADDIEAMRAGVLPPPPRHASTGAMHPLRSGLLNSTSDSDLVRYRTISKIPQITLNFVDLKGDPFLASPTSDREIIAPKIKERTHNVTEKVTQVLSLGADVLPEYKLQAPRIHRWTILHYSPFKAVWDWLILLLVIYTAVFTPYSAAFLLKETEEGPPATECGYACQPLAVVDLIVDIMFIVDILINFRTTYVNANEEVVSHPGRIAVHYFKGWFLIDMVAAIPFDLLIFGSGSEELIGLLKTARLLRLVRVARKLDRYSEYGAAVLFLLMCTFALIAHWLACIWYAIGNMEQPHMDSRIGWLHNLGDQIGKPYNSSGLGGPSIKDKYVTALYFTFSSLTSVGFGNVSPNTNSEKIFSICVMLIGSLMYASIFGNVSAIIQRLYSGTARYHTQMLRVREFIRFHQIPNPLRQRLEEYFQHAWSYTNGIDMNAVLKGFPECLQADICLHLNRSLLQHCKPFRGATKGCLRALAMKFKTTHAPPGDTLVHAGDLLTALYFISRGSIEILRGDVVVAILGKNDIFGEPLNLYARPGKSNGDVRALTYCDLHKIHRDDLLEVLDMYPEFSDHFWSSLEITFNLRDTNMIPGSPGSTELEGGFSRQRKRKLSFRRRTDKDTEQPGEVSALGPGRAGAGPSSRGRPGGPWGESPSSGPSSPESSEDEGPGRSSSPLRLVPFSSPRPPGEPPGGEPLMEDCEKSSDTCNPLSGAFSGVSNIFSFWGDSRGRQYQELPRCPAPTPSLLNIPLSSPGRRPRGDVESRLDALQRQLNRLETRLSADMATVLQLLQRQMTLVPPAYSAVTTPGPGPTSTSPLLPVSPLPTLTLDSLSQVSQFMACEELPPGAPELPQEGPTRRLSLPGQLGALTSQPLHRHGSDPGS

| Structure (SMILES) | hERG current change (%, negative = inhibition) at 1uM |
| --- | --- |
| COc1ccc(CNc2ncc(-c3ccc(F)cc3)n2C)cc1OC.O=C(O)C(=O)O | -37.5% |
| CC(C)c1cc(C(=O)O)n[nH]1 | 17.1% |
| COc1ccc(S(=O)(=O)n2nc(OC(C)=O)cc2N(C(C)=O)C(C)=O)cc1 | 2.92% |
| CCN(CC(=O)Nc1c(F)cccc1F)C(=O)c1cccc(S(=O)(=O)NCc2ccccc2)c1 | -0.508% |
| CCOc1ccccc1C(=O)NC(C(=O)OCC(=O)Nc1nnc(-c2ccccc2)o1)C(C)C (centres unmarked) | -4.62% |
| COCCCNc1nc2c(c(=O)n(Cc3ccc(F)cc3)c(=O)n2C)n1C | 4.22% |
| CCCn1c(N)c(N(CCOC)C(=O)c2cc(-c3ccco3)nc3ccccc23)c(=O)[nH]c1=O | 13.2% |
| O=C(CNC(=O)c1ccc(Br)o1)NCc1ccccc1Cl | 8.45% |
| CCC(=O)N(CC(=O)Nc1sc(C)c(C)c1C(N)=O)Cc1ccc(F)cc1 | 0.561% |
| COc1cc(/C=C/C(=O)NNc2c(F)c(F)cc(F)c2F)ccc1OC(F)F | 8.11% |
| O=C(CCNC(=O)Cn1ccc2ccccc2c1=O)NCCc1ccc(Cl)cc1 | 17.4% |
| CCCc1ccc(C(C)NC(=O)c2cnccn2)cc1 (centres unmarked) | 18.5% |
| COc1ccc(NCC(=O)Nc2ccc(Cl)cc2C)c(OC)c1 | 10.9% |
| Cc1cc(Br)ccc1OCCn1ccnc1.O=C(O)C(=O)O | 4.52% |
| CC(=O)c1ccc(OCC(=O)NC(=O)NC2CCCCC2)cc1 | 3.55% |
| OCCC1CN(Cc2ccc(Oc3ncccn3)cc2)CCN1Cc1ccc(F)c(F)c1 (centres unmarked) | 8.89% |
| CCOc1ccc(NC(=O)c2sc(N3CCOCC3)nc2-c2ccccc2)cc1 | 11.5% |
| Cc1ccc(C(=O)N/C(=C\c2cccs2)C(=O)NCCCn2ccnc2)cc1 | -66% |
| Cc1ccc(C)c(S(=O)(=O)N2CCCCC2CCNC(=O)C(=O)NCCc2ccco2)c1 (centres unmarked) | 1.68% |
| O=C(NCc1ccccc1)c1cc(=O)[nH]c2ccccc12 | 12.8% |
| O=C(NCc1cccnc1)Nc1cccc(C(F)(F)F)c1 | 3.47% |
| Cc1ccc(C(C(=O)NC2CCCCC2)N(CCC(C)C)C(=O)CNC(=O)c2ccco2)o1 (centres unmarked) | -2.69% |

| Structure (SMILES) | hERG current change (%, negative = inhibition) at 1uM |
| --- | --- |
| O=C(CN1C(=O)C2CCCCC2C1=O)Nc1ccccc1N1CCCC1 (centres unmarked) | 2.67% |
| Cc1[nH]c2ccccc2c1C(=O)CN1CCCCC1CCO (centres unmarked) | 2.11% |
| CN(C)CCCN=Cc1c(-c2ccccc2)[nH]n(-c2nc3ccccc3s2)c1=O | -58.1% |
| O=C(Nc1ncc(Cl)cc1Cl)c1c(F)cccc1Cl | 7.36% |
| CC1CC(C)CN(C(=O)C2CCN(S(=O)(=O)N3CCC4(CC3)OCCO4)CC2)C1 (centres unmarked) | 12% |
| CC(C)CN1CCC(CN(C)Cc2nc(-c3cnccn3)no2)CC1 | 14.9% |
| COc1ccccc1N1C(=O)c2cccc3c(Cl)ccc(c23)C1=O | 12.6% |
| O=C1C(Cc2ccc3[nH]ccc3c2)NC(=S)N1c1ccccc1 (centres unmarked) | 9.36% |
| C[C@]12CC(O)C3C(CCC4=CC(=O)CC[C@@]43C)C1CCC2c1csc(-c2ccccc2)n1 (some centres unmarked) | 8.92% |
| CN1CCN(c2ccc(S(=O)(=O)N3CCCCC3)cc2NC(=O)CSCc2ccccc2)CC1 | 6.17% |
| CC(=O)Nc1ccc2c(c1)OCCOCCOc1cc(NC(C)=O)ccc1OCCOCCOCCO2 | 9.04% |
| COc1ccc(OC)c(-c2cc(C(=O)Nc3c(C)nn(Cc4ccc(Cl)cc4)c3C)no2)c1 | 7.14% |
| O=C(Oc1ccc(/C=N/Nc2ccccc2)cc1)c1ccccc1 | 11.3% |
| CC(Oc1ccc(F)cc1)C(=O)N(CCC1=CCCCC1)c1c(N)n(Cc2ccccc2)c(=O)[nH]c1=O (centres unmarked) | -6.58% |
| COc1cccc(NC(=O)CSC2=NN3CCCC(=O)N=C3S2)c1 | 11.2% |
| CC(=O)C1=C(O)C(=O)N(c2ccc(O)cc2)C1c1ccc(C)cc1 (centres unmarked) | 17.4% |
| CCC(C)(C(=O)NC1CCCCC1)N(C(=O)CC1NC(=O)NC1=O)c1c(C)n(C)n(-c2ccccc2)c1=O (centres unmarked) | 8.58% |
| N#CC1C(C#N)N2CCCN2C1c1ccc(Br)cc1 (centres unmarked) | 12.7% |
| CC(=O)c1cccc(NC(=O)c2ccc(OC3CSC3)cc2)c1 | 21.1% |
| CCN(CC)S(=O)(=O)c1ccc(N/N=C/c2ccccc2OCC(=O)O)c([N+](=O)[O-])c1 | 13.8% |
| CCc1nnc(NC(=O)CCC(=O)NC2CCCCCC2)s1 | 5.28% |
| CCN(CC(=O)Nc1ccc(Br)cc1)C(=O)c1nc2nc(C)cc(C)n2n1 | -8.32% |

| Structure (SMILES) | hERG current change (%, negative = inhibition) at 1uM |
| --- | --- |
| O=S(=O)(c1ccc(Cl)cc1)N1CCCC1c1cccnc1 (centres unmarked) | 8.51% |
| CC(=O)Nc1ccc(Nc2nc(-c3cc4ccccc4oc3=O)cs2)cc1 | 2.82% |
| CC1c2[nH]c3ccccc3c2C[C@H]2C(=O)N(CCCN(C)C)CC(=O)N12 (some centres unmarked) | 13.3% |
| Cc1cccc2cc(CN(Cc3cccs3)C(=S)NCc3ccco3)c(=O)[nH]c12 | 11.6% |
| Nc1cc(N)nc(SCC(=O)NNC(=O)c2ccc(Cl)cc2)n1 | -2.13% |
| Cc1ccc(/C=C/C(=O)OCC(=O)NCc2ccc(Cl)cc2)o1 | -0.827% |
| O=C1c2oc3ccccc3c(=O)c2C(c2cccc(O)c2)N1c1ccccn1 (centres unmarked) | -2.4% |
| Cc1ccc(C)c(Cn2c(C(=O)O)c(C=O)c3ccccc32)c1 | -8.11% |
| Cc1ccc(S(=O)(=O)N2CCC(C(=O)OCC(=O)NC3(C#N)CCCCC3)CC2)cc1C | 8.05% |
| COCc1ccc(C(=O)N2CCCC(CNC(=O)c3ccc(F)cc3)C2)o1 (centres unmarked) | 6.99% |
| COc1ccc(-c2cc(C(F)(F)F)nc(SCC(=O)NCc3ccco3)n2)cc1OC | 3.99% |
| CCOc1ccc(N2C(=O)CC(N3CCN(C(=O)c4ccco4)CC3)C2=O)cc1 (centres unmarked) | -0.64% |
| COc1cc2c(cc1OC)CN(C(=S)Nc1ccccc1)CC2 | 7.72% |
| Cc1ccc(CS(=O)(=O)CCC(=O)NCCN2CCCC2)cc1 | 6.27% |
| CSc1ccc(CN2CCC(C(=O)NCc3ccc(C)cc3)CC2)cc1.O=C(O)C(=O)O | -76.1% |
| CCCn1c(=S)[nH]c2sc3c(c2c1=O)CCCC3 | 7.58% |
| COC(=O)c1ccc(CN2CCCC(C(=O)c3ccccc3OC)C2)cc1 (centres unmarked) | -6.6% |
| CN(C(=O)COC(=O)c1n[nH]c2ccccc12)c1ccccc1 | 11.2% |
| C/C(=C\c1ccco1)C1C(C#N)=C(N)Oc2n[nH]c(-c3ccc(C)cc3)c21 (centres unmarked) | 15.8% |
| COc1ccc(/C=C(/NC(=O)c2ccc(OC)c(OC)c2)C(=O)NCCCn2ccnc2)cc1 | 15.5% |
| COc1ccccc1-c1nnc(SCC(=O)N2CCC(C)CC2)o1 | 5.73% |
| O=C(NC1C2CC3CC(C2)CC1C3)c1ccc(Br)o1 (centres unmarked) | 3.13% |

| Structure (SMILES) | hERG current change (%, negative = inhibition) at 1uM |
| --- | --- |
| CC(=O)N1c2ccc(S(=O)(=O)NCCC(=O)NCCc3ccc(Cl)cc3)cc2CC1C (centres unmarked) | 5.01% |
| CC(=O)Nc1ccc(NC(=O)c2cc(-c3cc(C)c(C)cc3O)n[nH]2)cc1 | 12.7% |
| COc1cccc(Oc2nnnn2-c2ccccc2)c1 | 3.16% |
| CCc1[nH]nc2c1C(c1ccc(Br)s1)C(C#N)=C(N)O2 (centres unmarked) | 7.25% |
| CSc1nc2ccc(S(N)(=O)=O)cc2s1 | 15% |
| Cc1snc(S(=O)(=O)/C(C#N)=N/Nc2cccc(C(F)(F)F)c2)c1C#N | 5.29% |
| CSc1ccc(CNC(=O)C2Cc3cc(S(=O)(=O)N4CCCC4)ccc3N2C(C)=O)cc1 (centres unmarked) | 10.1% |
| CCC1(CC)NC(=O)N(CC(=O)OCC(=O)Nc2cc(OC)ccc2OC)C1=O | 4.73% |
| Cc1coc2c1c(C)cc1oc(=O)c(CC(=O)NCC(=O)O)c(C)c12 | 17.4% |
| COc1cccc(CC2CC(=O)N(c3ccc4c(C)cc(=O)oc4c3)C2=O)c1 (centres unmarked) | 5.07% |
| CCCCNC(=O)[C@H]1C[C@H]1[C@@H](O)[C@H](CO)NC(=O)[C@H](Cc1ccccc1)NC(=O)OC(C)(C)C | 11.5% |
| COc1cc(C2NC(=O)NC(C)=C2C(=O)OCC2CCCCC2)ccc1O (centres unmarked) | 11.3% |
| CCOC(=O)c1cc(NC(=O)Nc2ccc(Br)cc2)c(C)nc1C | 7.68% |
| COc1ccc(NC(=O)C2CCCN2C(=O)OCc2ccccc2)cc1 (centres unmarked) | 6.39% |
| COc1ccc(OCCCN2CCCC(C)C2)cc1 (centres unmarked) | -2.33% |
| CN(CC(=O)Nc1ccc(Cl)c(Cl)c1)C(=O)c1cccc2cccnc12 | 4.87% |
| Cc1ccc(S(=O)(=O)Nc2cccc(C(=O)NCc3ccccn3)c2)cc1F | 11.3% |
| O=S(=O)(Nc1cc(F)ccc1F)c1cccc2nonc12 | -61% |
| COc1cccc(OCc2nc3ccccc3[nH]2)c1 | 8.07% |
| Cc1ccc(NC(=O)c2ccccc2NC(=O)c2cccnc2)cc1 | 14.4% |

From PMC4336329 (PLoS ONE, 2015)
